# Reference: PubChem BioAssay AID504332 (National Center for Advancing Translational Sciences (NCATS), 2011)
# The whole screen tested about 350,000 compounds, of which about 31,000 (8.9%) were called active. The shares of active, inactive and inconclusive entries below differ from those in the screen. Calls follow the shape of the dose curve; as a rule, active = well fitted inhibition curve with a large enough effect; inconclusive = small, poorly fitted or top-dose-only effect; inactive = no such curve, though single readings can be large or run the other way. Where the call is inconclusive, the potency comes from a doubtful curve fit.
# Target: Histone-lysine N-methyltransferase EHMT2 (Homo sapiens) (UniProt Q96KQ7)
# Chain of UniProt Q96KQ7 (Q96KQ7 whole entry, looked up): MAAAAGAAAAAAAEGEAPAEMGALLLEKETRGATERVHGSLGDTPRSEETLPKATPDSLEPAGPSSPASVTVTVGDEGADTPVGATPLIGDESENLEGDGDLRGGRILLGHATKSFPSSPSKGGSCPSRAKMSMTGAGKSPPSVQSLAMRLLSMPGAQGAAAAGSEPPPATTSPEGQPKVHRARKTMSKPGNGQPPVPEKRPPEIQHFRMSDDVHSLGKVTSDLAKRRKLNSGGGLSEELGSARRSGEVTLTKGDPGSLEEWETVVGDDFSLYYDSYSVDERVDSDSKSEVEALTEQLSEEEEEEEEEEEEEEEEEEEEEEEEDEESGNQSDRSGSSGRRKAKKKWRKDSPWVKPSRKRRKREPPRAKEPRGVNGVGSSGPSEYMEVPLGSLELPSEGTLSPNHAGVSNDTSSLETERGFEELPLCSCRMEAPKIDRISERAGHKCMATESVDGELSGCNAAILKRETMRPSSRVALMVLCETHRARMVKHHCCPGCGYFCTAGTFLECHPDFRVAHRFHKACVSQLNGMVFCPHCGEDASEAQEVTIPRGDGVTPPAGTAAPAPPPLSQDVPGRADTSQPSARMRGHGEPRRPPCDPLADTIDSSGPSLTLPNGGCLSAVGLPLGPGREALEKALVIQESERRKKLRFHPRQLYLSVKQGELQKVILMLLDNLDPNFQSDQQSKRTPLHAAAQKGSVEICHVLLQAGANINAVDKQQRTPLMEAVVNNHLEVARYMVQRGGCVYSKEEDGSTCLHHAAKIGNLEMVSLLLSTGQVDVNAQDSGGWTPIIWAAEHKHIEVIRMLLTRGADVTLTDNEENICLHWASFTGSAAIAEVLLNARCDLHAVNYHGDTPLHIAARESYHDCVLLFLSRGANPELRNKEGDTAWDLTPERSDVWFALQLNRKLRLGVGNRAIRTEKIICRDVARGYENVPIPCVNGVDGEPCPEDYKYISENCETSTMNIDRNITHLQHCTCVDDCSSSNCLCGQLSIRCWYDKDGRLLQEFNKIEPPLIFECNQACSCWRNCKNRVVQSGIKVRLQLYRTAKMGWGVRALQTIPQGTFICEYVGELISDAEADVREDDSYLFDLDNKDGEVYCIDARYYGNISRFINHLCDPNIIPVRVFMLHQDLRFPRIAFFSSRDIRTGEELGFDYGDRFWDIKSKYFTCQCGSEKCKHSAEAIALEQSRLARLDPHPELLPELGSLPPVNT
# Assay: qHTS Assay for Inhibitors of Histone Lysine Methyltransferase G9a; also: nearly all actives have a fitted effect of over 75% in size
# Conditions: G9a H3K9 monomethylation, AlphaScreen, 2 h; activity, negative = inhibition: at 59 µM (top of the series) unless noted
# Method in brief: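 Signal arises when biotinylated H3K9 peptide, once monomethylated, bridges streptavidin donor and antibody-captured acceptor beads. Enzyme at 20 nM was preincubated 15 min with test compounds; peptide 500 nM and SAM 20 uM then reacted for 2 h.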
# % is scaled to controls: 0 for no effect and ±100 for the full control effect; potency is read from the fitted curve at half-maximal effect; tags tell the direction and shape of the fitted curve.
SMILES,Potency,"activity, negative = inhibition"
Clc1ccc(-c2csc3ncnc(Cl)c23)cc1,inactive,–
CCCc1ccc(OC(=O)CSc2nnc(-c3cccs3)o2)cc1,"inconclusive: 31.6 µM [inhibitor, partial curve, poor fit]",–
CCOc1ccc(-c2cc3c(=O)n(CC(=O)NCc4ccc(OC)cc4)ccn3n2)cc1,–,inactive: 0.34% [at 12.7 µM]
O=C(Nc1ccc2c(c1)CCC2)c1cccc(S(=O)(=O)N2CCN(c3ccccc3)CC2)c1,active: 10 µM,–
O=C(Nc1ccc(F)cc1)C1CCN(c2nc3ccccc3n3cccc23)CC1,"inconclusive: 14.1 µM [inhibitor, partial curve]",–
CCCCN(C)C(=O)C1CCN(Cc2ccc(OCc3ccccc3)cc2)CC1,"inconclusive: 25.1 µM [inhibitor, single point]",–
COc1cc(/C=N/NC(=S)NC2CC3CC2C2C=CCC32)ccc1O (configuration not stated),"inconclusive: 35.5 µM [inhibitor, full curve]",–
O=c1[nH]c(=O)n(Cc2ccccc2)c2nc(-c3ccc(Oc4ccc(F)cc4)c([N+](=O)[O-])c3)n(CCO)c12,"inconclusive: 100 µM [inhibitor, single point]",–
Cc1c(-c2cc(C(=O)O)c3ccccc3n2)cnn1C,active: 44.7 µM,–
O=C(O)/C=C/C(=O)Nc1ccc(-n2ccc(C(F)(F)F)n2)cc1,active: 44.7 µM,–
COc1cc2c(cc1NC(=S)NC(=O)/C=C/c1ccc(OC)c(OC)c1)oc1ccccc12,"inconclusive: 20 µM [inhibitor, single point]",–
Cc1cccc(C)c1NC(=S)Nc1ccccc1C(=O)NCc1ccco1,inactive,–
Cc1nc2cc(NC(=O)N3CCCCC3)ccc2n1C,"inconclusive: 14.1 µM [inhibitor, single point]",–
O=C(c1ccc(Br)o1)N1CCN(c2ccc(F)cc2)CC1,inactive,–
Cn1c(SC2C(=O)CC(C)(C)CC2=O)nnc1-c1ccco1,"inconclusive: 56.2 µM [inhibitor, partial curve]",–
CCN1CCN(S(=O)(=O)c2ccc(Cl)c(C(=O)N(CC)Cc3ccccc3)c2)CC1,active: 14.1 µM,–
O=C(O)CSc1c(-c2ccccc2)c2cc(Cl)ccc2[nH]c1=O,inactive,–
Cc1ccc(C(=O)C2=C(O)C(=O)N(c3ncccn3)C2c2ccc(Br)cc2)o1 (configuration not stated),"inconclusive: 56.2 µM [inhibitor, partial curve]",–
Cc1ccc(N2C(N)=C(C#N)C(c3cccnc3)C3=C2CCCC3=O)cc1 (configuration not stated),"inconclusive: 89.1 µM [inhibitor, partial curve, poor fit]",–
N#CCc1ccc(C(=O)c2ccccc2F)s1,"inconclusive: 10 µM [inhibitor, partial curve, poor fit]",–
O=C(c1ccco1)N1CCC2(CC1)CN(c1ccccc1)C2,–,inactive: 22.5% [at 12.7 µM]
CC(C)(C)OC(=O)N1CCN(C(=O)c2[nH]cnc2C(=O)NCc2ccccc2)CC1,–,inactive: 12% [at 0.501 µM]
CCn1c(=O)c2c(cnn2C)c2ccccc21,"inconclusive: 28.2 µM [inhibitor, single point]",–
Cc1[nH]n(-c2ccccc2)c(=O)c1C(C[N+](=O)[O-])c1ccc(Br)cc1 (configuration not stated),active: 39.8 µM,–

SMILES,Potency,"activity, negative = inhibition"
C/C=C/c1ccc(OCCNCc2ccccc2)c(OC)c1,"inconclusive: 28.2 µM [inhibitor, full curve, poor fit]",–
CCOc1ccc(C(=O)N(Cc2ccc(N(C)C)cc2)C2CCS(=O)(=O)C2)cc1 (configuration not stated),"inconclusive: 3.55 µM [inhibitor, partial curve, poor fit]",–
CC(=O)Nn1cc2c(c1-c1ccccc1)c(=O)n(C)c(=O)n2C,"inconclusive: 31.6 µM [inhibitor, full curve, poor fit]",–
COc1cccc(-c2cc(C(F)(F)F)n3nc(N)nc3n2)c1,–,inactive: -0.928% [at 12.7 µM]
COc1cc(/C=N/O)ccc1OCc1ccccc1Cl,inactive,–
O=C(COC(=O)c1cccc(S(=O)(=O)N2CCN(c3ccccc3)CC2)c1)NCC1CCCO1 (configuration not stated),inactive,–
C/C(=N/Nc1nc(-c2ccc(Cl)cc2)cs1)c1cccs1,"inconclusive: 3.16 µM [inhibitor, partial curve, poor fit]",–
Cc1[nH]cnc1CSCCN,"inconclusive: 7.08 µM [inhibitor, full curve, poor fit]",–
COc1ccccc1C(=O)NCCC(=O)N1CCN(C(C)=O)CC1,inactive,–
Cc1ccc(C(=O)OC(C)C(=O)Nc2ccc(S(N)(=O)=O)cc2)cc1S(=O)(=O)N1CCOCC1 (configuration not stated),"inconclusive: 7.94 µM [inhibitor, partial curve, poor fit]",–
C=C1CCC2[C@](C)(CO)C(O)CC[C@]2(C)C1C/C=C1/C(=O)OCC1O (some centres not stated),inactive,–
Cc1oc2ccc(O)c(CN3CCCCCC3)c2c1C(=O)Nc1cccc(Cl)c1C,inactive,–
O=C(NCCc1c[nH]c2ccccc12)c1ccccc1,inactive,–
Cc1cc(SCC(=O)OCC(=O)N(C)c2ccccc2)nc2ccccc12,inactive,–
CCN(CC)CCCNC(=O)c1ccc2c(c1)N(Cc1c(F)cccc1Cl)C(=O)c1ccccc1S2,"inconclusive: 11.2 µM [inhibitor, partial curve, poor fit]",–
O=C(OCCN(C1=NS(=O)(=O)c2ccccc21)c1ccccc1Cl)c1ccc(Cl)cc1,inactive,–
CCOc1ccccc1NC(=O)COC(=O)C12CC3CC(CC(O)(C3)C1)C2,"inconclusive: 79.4 µM [inhibitor, partial curve, poor fit]",–
Cn1c(CN2CCCC(C(=O)c3ccc4c(c3)OCO4)C2)nc2ccccc21 (configuration not stated),inactive,–
COC(=O)c1cc(-c2cccs2)[nH]n1,inactive,–
COc1cccc(/C=C/c2nc(C#N)c(N3CCCCCC3)o2)c1,"inconclusive: 7.94 µM [inhibitor, partial curve]",–
Nc1nc(SCc2ccc(F)cc2)ns1,"inconclusive: 17.8 µM [inhibitor, partial curve, poor fit]",–
CCCCn1c(SCC(=O)Nc2ccc(C)c(S(=O)(=O)N3CCOCC3)c2)nnc1C(CC)N(C)C (configuration not stated),"inconclusive: 70.8 µM [inhibitor, partial curve, poor fit]",–
Cc1ccc(CNc2nc3ccc(C)cc3n3cnnc23)cc1,active: 50.1 µM,–
Cn1c(N2CCOCC2)c(/C=N/O)c2ccccc21,"inconclusive: 44.7 µM [inhibitor, single point]",–

SMILES,Potency,"activity, negative = inhibition"
COc1ccc(-c2nsc(SCC(=O)Nc3cc(C)on3)n2)cc1,active: 3.55 µM,–
CCOC(=O)c1cnc2ccc(OC(F)(F)F)cc2c1Nc1ccccc1C(=O)O,inactive,–
O=C(COC(=O)/C=C/c1ccc(Cl)cc1Cl)NCCC1=CCCCC1,"inconclusive: 79.4 µM [inhibitor, single point]",–
COc1ccc(OC)c(-c2csc(NC(=O)CSc3ccccc3)n2)c1,inactive,–
COc1ccc(Br)cc1CN(C)CC(=O)Nc1cccc(S(N)(=O)=O)c1,inactive,–
COC(=O)C1=C(C(=O)OC)C(c2cc(Br)ccc2O)c2sc(=O)[nH]c2S1 (configuration not stated),active: 3.16 µM,–
CCCC(=O)N(CCN1CCOCC1)c1nc2c(C)cccc2s1,"inconclusive: 89.1 µM [inhibitor, single point]",–
COc1cc(C2/C(=C(\O)c3ccc4c(c3)OCCO4)C(=O)C(=O)N2Cc2ccco2)cc(OC)c1OC (configuration not stated),active: 50.1 µM,–
COc1cccc(C(=O)NC(=S)Nc2ccc3[nH]c(=O)[nH]c3c2)c1,"inconclusive: 79.4 µM [inhibitor, single point]",–
O=C(CC1CCS(=O)(=O)C1)Nc1ccc[nH]c1=O (configuration not stated),"inconclusive: 50.1 µM [inhibitor, partial curve, poor fit]",–
Cc1ccc(C2=NN(C(=O)CN3CCN(C4CCS(=O)(=O)C4)CC3)C(c3ccco3)C2)cc1 (configuration not stated),"inconclusive: 1.41 µM [inhibitor, single point]",–
Cc1cc(S(=O)(=O)Nc2ccc(N(C)C)cc2)c(C)s1,"inconclusive: 3.16 µM [inhibitor, single point]",–
CCOc1ccc(NC(=O)CCS(=O)(=O)c2cccc3nsnc23)cc1,"inconclusive: 2.82 µM [inhibitor, single point]",–
Cc1ccc(NC(=O)Cn2nc(C(F)(F)F)c3c2CCC3)cc1C,inactive,–
CC(C)COc1ccc(C(=O)Nc2onc3c2CCCC3)cc1,"inconclusive: 35.5 µM [inhibitor, single point]",–
Cc1cc(C)nc(SCC(=O)NCc2ccco2)n1,active: 44.7 µM,–
CCOc1ccc2nc(SCC(=O)NC(=O)C(C)C)sc2c1,"inconclusive: 89.1 µM [inhibitor, partial curve, poor fit]",–
C=CCn1c(-c2ccc(S(=O)(=O)N3CCOCC3)cc2)csc1=Nc1ccccc1,–,inactive: 7.34% [at 0.501 µM]
Clc1ccc(OCc2nn3c(-c4ccccc4)nnc3s2)c(Cl)c1,–,inconclusive: -96.2% [inhibitor] [at 12.7 µM]
COc1cccc(CNC(=O)COC(=O)CCc2cc(OC)c(OC)c(OC)c2)c1,"inconclusive: 0.794 µM [inhibitor, single point]",–
CC12CCC(=O)N1C(C(=O)Nc1nnc(SCc3ccccc3F)s1)CS2 (configuration not stated),active: 79.4 µM,–
CC(C)(C)NC(=O)NC(=O)CN1c2cccc3cccc(c23)S1(=O)=O,"inconclusive: 2.82 µM [inhibitor, partial curve, poor fit]",–
CC(C)(CNS(=O)(=O)c1ccc2ccccc2c1)N1CCOCC1,"inconclusive: 8.91 µM [inhibitor, single point]",–
Cc1ccc2c(c1)nc(NCCO)n2C,"inconclusive: 89.1 µM [inhibitor, partial curve, poor fit]",–
